Hit rate of the full screen: of about 110,000 compounds, about 230 (0.21%) showed an effect of 50% or more. The list shows a part of the results.
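Also: 30 min substrate incubation versus DMSO and 10 µM JCP410 controls.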

DPAP1, sequence (Q8IIJ9 whole entry, looked up): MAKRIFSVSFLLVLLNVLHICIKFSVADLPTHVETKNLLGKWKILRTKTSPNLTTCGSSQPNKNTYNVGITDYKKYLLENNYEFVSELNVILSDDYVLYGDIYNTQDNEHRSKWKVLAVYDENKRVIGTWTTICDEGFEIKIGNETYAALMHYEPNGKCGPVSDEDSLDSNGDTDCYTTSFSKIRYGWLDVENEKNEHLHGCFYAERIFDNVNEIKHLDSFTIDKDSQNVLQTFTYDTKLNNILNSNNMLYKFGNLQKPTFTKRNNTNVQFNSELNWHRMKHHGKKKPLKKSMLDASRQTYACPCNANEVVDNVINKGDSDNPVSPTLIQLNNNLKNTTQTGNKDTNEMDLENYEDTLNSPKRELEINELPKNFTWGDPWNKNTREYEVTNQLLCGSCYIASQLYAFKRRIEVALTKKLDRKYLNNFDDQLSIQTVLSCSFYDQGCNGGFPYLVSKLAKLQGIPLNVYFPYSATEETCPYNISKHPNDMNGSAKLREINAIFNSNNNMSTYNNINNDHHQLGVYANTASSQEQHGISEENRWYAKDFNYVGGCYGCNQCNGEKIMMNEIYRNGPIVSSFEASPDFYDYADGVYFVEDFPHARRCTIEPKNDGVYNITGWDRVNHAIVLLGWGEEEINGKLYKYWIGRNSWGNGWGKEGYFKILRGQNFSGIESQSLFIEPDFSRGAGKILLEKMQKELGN

This assay concerns the target DPAP1 (Plasmodium falciparum, UniProt Q8IIJ9). In words: primary screen, percent inhibition; read by cleavage of a fluorogenic dipeptide substrate; higher = more effect of the substance. Set-up: species or system P. falciparum D10 trophozoite lysates; single well.
For `COc1cc(C2C3=C(O)CC(C)(C)CC3=NC(C)=C2C(=O)OCc2ccccc2)ccc1O` (centres unmarked), the “% Inhibition @ 10 uM” value is listed as 3%.
To `CCOC(=O)c1c(NC(=O)C2CCCCC2C(=O)O)sc(C)c1-c1ccc(F)cc1` (centres unmarked) belongs 3.94%; to `CCN(CC)c1ccc(NC(=O)c2ccccc2C)c(C)c1`, -1.61%; to `COc1ccc(-c2noc(CC(=O)Nc3ccccn3)n2)cc1`, 0.581%.
`Cn1nc(C(=O)Nc2cccnc2Cl)c2c1-c1ccccc1OC2`: the “% Inhibition @ 10 uM” value is reported as 1.68%.
Consider `COc1ccc(-c2[nH]nc3c2C(c2ccc(N4CCOCC4)cc2)C(C#N)=C(N)O3)cc1` (centres unmarked), for which the “% Inhibition @ 10 uM” value is recorded as 0.343%.
The same measure for `O=C(NCCN1CCCCCC1)c1csc2c1CCCC2`: -3.21%; for `CCc1ccc(OCc2ccc(C(=O)Nc3ccon3)cc2)cc1`: -2.9%.
Consider `O=C(Nc1cccnc1)c1nn2c(C(F)(F)F)cc(-c3ccco3)nc2c1Br`, for which the “% Inhibition @ 10 uM” value is reported as -3.09%.
With `Cc1cccc(-n2nc3c(c2NC(=O)CC2CCCCC2)CS(=O)(=O)C3)c1C`, the “% Inhibition @ 10 uM” value is 6.04%.
The same measure for `CC1=C(C(=O)Nc2ccc(Br)cn2)C(c2ccccc2)C2=C(O)CCCC2=N1` (centres unmarked): -8.64%; for `O=C(CNC(=S)N(Cc1ccccc1F)C1CCCCC1)NCc1ccco1`: -5.8%; for `Cn1c(NCc2ccco2)nc2c1c(=O)n(CCc1ccccc1)c(=O)n2C`: 1.97%.
As for `CCC1CCc2c(sc(NC(=O)c3ccncc3)c2C#N)C1` (centres unmarked), the “% Inhibition @ 10 uM” value came to 2.38%.
Turning to `Cc1ccc(C(=O)Nc2c(C(=O)N3CCCCCC3)cnn2-c2ccccc2)cc1`, the “% Inhibition @ 10 uM” value was -2.82%.
With `CN1CCC(N(C)Cc2coc3ccccc3c2=O)CC1`, the “% Inhibition @ 10 uM” value is given as -0.127%.
Regarding `O=Cc1c[nH]c2ccc(S(=O)(=O)N3CCc4ccccc4C3)cc12`, the “% Inhibition @ 10 uM” value is on record as 2.35%.
As to `CCN(CC)c1ccc(NC(=O)C2CC3CCC2C3)cc1` (centres unmarked), the “% Inhibition @ 10 uM” value is listed as -0.67%.
As to `COc1cccc(-c2ccc(C#N)c(SCC(=O)Nc3ccccc3)n2)c1`, the “% Inhibition @ 10 uM” value is recorded as 0.726%.
`O=C(CSc1cn(CC(=O)N2CCCCC2)c2ccccc12)N1CCOCC1`: the “% Inhibition @ 10 uM” value is recorded as -2.55%.
The same measure for `Cc1nn(CC(=O)NCCCN2CC(C)CC(C)C2)c(=O)c2cc3sccc3n12` (centres unmarked): -3.35%; for `Cc1cc(SCC(=O)Nc2nsc(-c3ccccc3)n2)nc2ccccc12`: -3.63%; for `C=CCn1c(SCC(=O)Nc2nonc2C)nnc1-c1cccs1`: 1.76%.
With `CCSC1=NSC2=NC(=O)/C(=C\c3ccc(CC)cc3)C(=N)N12`, the “% Inhibition @ 10 uM” value is given as 1.83%.
The same measure for `CC(C)(C)OC(=O)N1CCN(C(=O)C(=O)c2c[nH]c3ccccc23)CC1`: -1.11%; for `CC(C)CNc1ncnc2onc(-c3ccc(F)cc3)c12`: -0.495%.
On to `COc1ccc(-c2noc(CN(C(C)C)S(=O)(=O)c3ccc(F)cc3)n2)cc1`, for which the “% Inhibition @ 10 uM” value stood at 1.94%.
To `CCO/C(O)=C1\C(C)=NC(=S)NC1c1ccccc1F` (centres unmarked) belongs -9.83%; to `CN(C(=O)c1cc2c(O)nc3ccccc3c2s1)C1CCCCC1`, -4.14%.
The same measure for `Cc1cc(NC(=O)c2noc3c2CCCC3)nn1Cc1ccc(Cl)cc1`: -1.84%; for `COc1ccc(C(=O)N2CCN(C(=O)c3ccco3)CC2)cc1`: -1.86%; for `COc1ccc(C(=O)N2CCN=C2SCc2ccc(Cl)cc2)cc1`: -2.83%.
To `COc1ccccc1NC(=O)C1=C(C)Nc2nc(CCCO)nn2C1c1cccc(Br)c1` (centres unmarked) belongs 0.528%; to `COc1ccc(NC(=O)C(CC(=O)O)Cc2ccc(Cl)cc2)cc1` (centres unmarked), 2.43%; to `COc1cccc2c1cc1c(=O)n(CC(=O)NC3CCC(C)CC3)nc(C)n12` (centres unmarked), -3.47%.
As to `COc1ccccc1-c1cc(C(=O)Nc2c(C)nn(Cc3ccc(F)cc3)c2C)no1`, the “% Inhibition @ 10 uM” value is -3.36%.
The same measure for `O=C(c1ccc(F)cc1)N(Cc1ccccc1)Cc1ccccc1`: -0.0217%; for `COc1ccc(Br)cc1C1C(C#N)=C(N)Oc2[nH]nc(-c3ccc4c(c3)OCO4)c21` (centres unmarked): 3.99%.
The same measure for `O=C(c1cccnc1Cl)N1CCN(c2ccccc2)CC1`: -5.26%; for `CCn1cc(CCCC(=O)NCc2ccc(C)cc2)c2ccccc21`: 0.658%; for `COc1ccc(C2(CC(=O)Nc3ccc(Br)cc3)C(=O)c3ccccc3C2=O)cc1`: -9.7%.
To `Cc1cc2nc(C)n(CC(C)C)c2cc1C` belongs 0.596%.
Turning to `COCCn1c(Cc2cccn2C)nnc1SCC(=O)Nc1nccs1`, the “% Inhibition @ 10 uM” value is recorded as -3.68%.
The same measure for `Cc1ccc(S(=O)(=O)N(CC(=O)NCc2ccco2)c2ccc(Cl)c(C(F)(F)F)c2)cc1`: 1.86%; for `Cc1ccc(Sc2c(C(=O)NCc3cccnc3)[nH]c3ccccc23)cc1`: -9.13%; for `CCCCC(=O)Nc1scc(-c2ccc(OC)cc2)c1C(=O)O`: -2.8%.
To `COc1ccc(NC(=O)COc2ccc(C(=O)Nc3ccccc3OC)cc2)cc1` belongs 2.22%; to `Cc1ccc2cc(C(=O)O)[nH]c2c1`, -0.0309%.
The same measure for `Oc1nc(SCCc2ccccc2)nc2ccccc12`: 1.13%.
As to `Cc1onc(-c2ccccc2Cl)c1C(=O)Nc1nn[nH]n1`, the “% Inhibition @ 10 uM” value is -1.1%.
`O=C(O)C1C2C=CC(O2)C1C(=O)Nc1cccc(C(F)(F)F)c1` (centres unmarked): the “% Inhibition @ 10 uM” value is recorded as -8.28%.
Turning to `CN1C(=O)C(O)(CC(=O)c2cccs2)c2cc(Br)ccc21` (centres unmarked), the “% Inhibition @ 10 uM” value is reported as -4.68%.
For `Cc1coc2cc3oc(=O)c(CCC(=O)O)c(C)c3cc12`, the “% Inhibition @ 10 uM” value is 0.558%.
To `CCc1ccc(-c2cn3cc(C)ccc3n2)cc1` belongs -2.2%; to `CN(Cc1ccccc1)S(=O)(=O)c1nnc(NC(=O)c2ccco2)s1`, 0.813%; to `CCOc1ccc2c(=O)c(-c3ccccc3)c(C)oc2c1`, -4.57%.
For the molecule `Cc1ccc(/C=C2/SC(N3CC(C)OC(C)C3)=NC2=O)o1` (centres unmarked), the “% Inhibition @ 10 uM” value amounted to 17.1%.
With `O=C(NCCCO)/C(=C/c1ccccc1)NC(=O)c1ccc(Br)o1`, the “% Inhibition @ 10 uM” value turned out to be 5.67%.
To `COc1cc(CN2CCN(Cc3ccc(SC)cc3)CC2)cc(OC)c1OC` belongs 3.05%.
For the molecule `Cc1c(C)n(CC(O)CNc2ccccc2)c2ccccc12` (centres unmarked), the “% Inhibition @ 10 uM” value is given as 3.53%.
The same measure for `Cc1ccc(C)c(OCC(=O)O/N=C(\N)c2ccccn2)c1`: 0.487%; for `CC(C)(Cl)C1Cc2cc3ccc(=O)oc3cc2O1` (centres unmarked): -2.78%.
As for `COC(=O)c1sccc1NC(=O)c1cc(C)nc2c1c(C)nn2-c1cccc(Cl)c1C`, the “% Inhibition @ 10 uM” value is reported as 1.15%.
With `COc1ccccc1CNC(=O)CN(C)S(=O)(=O)c1cccc2cccnc12`, the “% Inhibition @ 10 uM” value is recorded as 0.981%.
The same measure for `Cc1sc2nc(SCC(N)=O)n(-c3cccc(Cl)c3)c(=O)c2c1C`: -2.64%; for `Cc1nc(NC(=O)COc2ccc(C(C)(C)C)cc2)ccc1Br`: -7.81%.
The same measure for `Cc1ccc(S(=O)(=O)Nc2ccc(OC(C)C)cc2)cc1`: -2.08%.
To `CN(C)CCC(c1ccc(Cl)cc1)c1ccccn1` (centres unmarked) belongs -8.57%.
Regarding `COc1ccc(/C=C2\N=C(c3ccc(Br)cc3)OC2=O)cc1OC`, the “% Inhibition @ 10 uM” value is recorded as -1.15%.
For `O=C(NCc1ccco1)c1ccc2c(c1)C(=O)N(CC1CCCO1)C2=O` (centres unmarked), the “% Inhibition @ 10 uM” value stood at 1.19%.
As to `COC(=O)C1=CN(C)C=C(C(=O)OC)C1c1ccc(OC)c(OC)c1OC`, the “% Inhibition @ 10 uM” value came to 3.47%.
To `Cc1ccc2c(CNCCc3ccco3)c(C(=O)O)n(C)c2c1` belongs -10.5%; to `N#CCNC(=O)[C@@H](Cc1ccccc1Cl)NC(=O)OCc1ccccc1`, 1.61%.
Regarding `Cc1ccc(N2CC(C(=O)NC3CC3)CC2=O)cc1Cl` (centres unmarked), the “% Inhibition @ 10 uM” value is -2.32%.
The same measure for `CCc1ccccc1NC(=O)COc1ccc2c(C)cc(=O)oc2c1`: 8.82%; for `COC(=O)CCS(=O)(=O)c1ccc2ccccc2c1`: 0.937%.
Turning to `Cc1ccc(NC(=O)CCc2ccc(S(=O)(=O)NC3CCCCC3)cc2)cc1`, the “% Inhibition @ 10 uM” value is listed as -1.61%.
To `CS(=O)(=O)N(CC(=O)N1CCC(Cc2ccccc2)CC1)c1cc(Cl)cc(Cl)c1` belongs -2.94%; to `Cc1ccnc(NC(=O)c2noc3c2CCCC3)c1`, -4.97%; to `CCN(CC)CCNC(=O)C12CC3CC(CC(C3)C1)C2`, 0.815%.
To `COc1cccc(COC(=O)N[C@@H](CC(C)C)C(=O)NCC#N)c1OC` belongs -4.72%.
To `O=C(Cn1c(=O)c2cccn2c2cccnc21)NCCc1c[nH]c2ccccc12` belongs -0.118%; to `CC(C)=CCC[C@H](C)CCN1CCN(c2ccccc2F)CC1`, -3.57%; to `Fc1cccc(F)c1CN1CCN(C/C=C/c2ccccc2)CC1`, 1.08%.
Regarding `COc1ccc(CNC(=O)C2=Cc3sc4c(c3CS2)CCC(C)C4)cc1` (centres unmarked), the “% Inhibition @ 10 uM” value was found to be 4.48%.
The same measure for `N=c1n(CCOc2ccccc2)c2ccccc2n1CCN1CCCCC1`: 10%; for `CC(C)Cc1nnc2sc(NC(=O)COc3ccccc3F)nn12`: 6.32%.
Regarding `CCOc1ccc(NC(=O)CC2NCCNC2=O)cc1` (centres unmarked), the “% Inhibition @ 10 uM” value worked out at 0.907%.
Take `COc1ccccc1CNC(C)(C)CO`: the “% Inhibition @ 10 uM” value is reported as -1.43%.
Consider `CC1CN(C2CCCCCC2)CC(C)O1` (centres unmarked), for which the “% Inhibition @ 10 uM” value was 1.57%.
The same measure for `Cc1ccsc1CC/N=c1/c(-c2ccccc2)c(O)c1=O`: -6.24%.
To `CC1=CCC2C(=O)N(c3cccc(OCC(=O)c4ccccc4)c3)C(=O)C2C1` (centres unmarked) belongs -2.09%.
To `CCOc1ccc(-c2cc(C(=O)N3CCN(C)CC3)c3ccccc3n2)cc1` belongs 4.36%; to `Cc1cc(Cl)ccc1N(CC(=O)NC(C)c1ccccc1)S(C)(=O)=O` (centres unmarked), -3.28%; to `Cc1c(CNCc2cccc(F)c2)c(C(=O)O)c(C)n1Cc1c(F)cccc1Cl`, -5.49%.
In the case of `CCN(CC)c1ccc(/C=C(\C#N)C(=O)c2ccc(OC)cc2)cc1`, the “% Inhibition @ 10 uM” value is -0.582%.
To `Cc1ccccc1CN(c1ccc(C(=O)NC2CC3CCC2C3)cc1)S(C)(=O)=O` (centres unmarked) belongs -11.7%; to `O=C(Nc1cccc2cccnc12)C1CCCCC1`, -3.41%; to `Cc1ccc(C2=NS(=O)(=O)N(C)C(C(=O)NCC(C)C)=C2)cc1`, 0.655%.
As to `c1ccc2c(c1)nc(N1CCOCC1)c1nnnn12`, the “% Inhibition @ 10 uM” value was -4.03%.
As to `CCOc1ccc(Cn2c(-c3nonc3N)nc3ccccc32)cc1OCC`, the “% Inhibition @ 10 uM” value stood at 0.755%.

Source of the values: article PMC6919601, “Identification of Plasmodium dipeptidyl aminopeptidase allosteric inhibitors by high throughput screening” (PLoS ONE, 2019).
